{"source": "PubChem BioAssay AID1460", "about": "(National Center for Advancing Translational Sciences (NCATS), 2008)", "note": "The campaign covered roughly 270,000 compounds. About 5,800 (2.1%) were called active. The shares of active, inactive and inconclusive entries below differ from those in the screen. The call rests on the fitted dose curve; in most records, active means well fitted inhibition curve with a large enough effect; inconclusive means small, poorly fitted or top-dose-only effect; inactive means flat fitted curve, though single readings scatter. Potencies of inconclusive entries are doubtful fits and often do not repeat. On the % scale 0 is the no-effect control and ±100 the full control effect; potency means the concentration at half of the fitted maximal effect; tags describe the fitted curve by direction and shape.", "data": [{"target": "Microtubule-associated protein tau (Homo sapiens) (UniProt P10636)", "sequence (P10636 whole entry, looked up, the tested form may be a part)": "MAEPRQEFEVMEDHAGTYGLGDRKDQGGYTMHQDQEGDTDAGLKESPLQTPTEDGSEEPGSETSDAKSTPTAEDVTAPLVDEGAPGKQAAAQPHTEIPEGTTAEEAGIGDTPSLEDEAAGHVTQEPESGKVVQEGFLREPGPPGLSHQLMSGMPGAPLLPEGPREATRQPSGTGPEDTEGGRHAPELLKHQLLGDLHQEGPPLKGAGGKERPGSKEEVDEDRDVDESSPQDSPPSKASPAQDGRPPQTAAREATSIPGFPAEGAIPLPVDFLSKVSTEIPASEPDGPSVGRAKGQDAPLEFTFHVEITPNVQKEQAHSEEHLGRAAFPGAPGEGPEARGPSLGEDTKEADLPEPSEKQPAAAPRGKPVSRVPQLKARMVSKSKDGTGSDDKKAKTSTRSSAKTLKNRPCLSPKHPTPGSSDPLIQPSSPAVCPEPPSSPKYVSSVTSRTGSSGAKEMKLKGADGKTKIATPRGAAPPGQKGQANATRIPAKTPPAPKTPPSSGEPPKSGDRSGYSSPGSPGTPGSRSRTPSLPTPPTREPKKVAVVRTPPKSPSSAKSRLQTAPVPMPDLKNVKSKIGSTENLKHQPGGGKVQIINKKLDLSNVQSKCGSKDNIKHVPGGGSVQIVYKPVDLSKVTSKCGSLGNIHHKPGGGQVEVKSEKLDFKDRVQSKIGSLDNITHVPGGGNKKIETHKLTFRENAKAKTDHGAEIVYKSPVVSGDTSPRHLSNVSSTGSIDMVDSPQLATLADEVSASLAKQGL", "assay": "qHTS for Inhibitors of Tau Fibril Formation, Thioflavin T Binding; further: nearly all actives have a fitted effect of over 55% in size", "details": "recombinant tau K18 P301L (four-repeat tau fragment), heparin-induced fibrillization, ThT fluorescence; series mostly up to 57.4 µM; activity, negative = inhibition: at the top concentration", "how_it_was_run": "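Tau K18 P301L fragment (15 uM unlabeled plus 0.24 uM Alexa 594-labeled) in 100 mM sodium acetate pH 7 with compound, fibrillization induced by 20 uM heparin for 6 hr at 37 C. Thioflavin T (30 uM) added, fluorescence read after 1 hr (ex 450, em 510 nm).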", "values": [{"smiles": "C[C@H]1C(c2cccc(Cl)c2)=NN(c2ccccc2)[C@@H]1CO", "Potency": "inconclusive: 17.8 µM [inhibitor, partial curve]"}, {"smiles": "CCCc1cc(-c2nc(-c3ccc(Cl)cc3)cs2)ccn1", "Potency": "inconclusive: 10 µM [inhibitor, partial curve]"}, {"smiles": "CCOC(=O)c1cnc(SC)nc1Oc1cccc(NS(=O)(=O)c2ccc(Cl)cc2)c1", "activity, negative = inhibition": "inactive: 2.01%"}, {"smiles": "Cc1ccc(-c2cnc(NCc3ccc(C(F)(F)F)cc3)n2C)cc1", "Potency": "inconclusive: 10 µM [inhibitor, partial curve]"}, {"smiles": "Cc1ccc(CCNC(=O)C2CCN(c3nnc(-n4cccc4CNc4ccc(C)cc4)s3)CC2)cc1", "Potency": "inconclusive: 12.6 µM [inhibitor, partial curve]"}, {"smiles": "O=C(CCS(=O)(=O)c1cccc2nonc12)N1CCCc2ccccc21", "activity, negative = inhibition": "inactive: -10.3%"}, {"smiles": "C(=N\\Nc1nc(-c2ccccc2)cs1)/c1cccs1", "Potency": "active: 14.1 µM"}, {"smiles": "COc1ccc2c(c1)oc(=O)c1ccccc12", "Potency": "inconclusive: 0.282 µM [inhibitor, single point]"}, {"smiles": "Cc1cc(Oc2ccccc2)nc(-c2ccccc2O)n1", "Potency": "inconclusive: 39.8 µM [inhibitor, single point]"}, {"smiles": "COc1ccc(OC)c(C2C(C(C)=O)=C(O)C(=O)N2CCN2CCOCC2)c1", "note": "(stereo not drawn)", "Potency": "inconclusive: 22.4 µM [inhibitor, partial curve, poor fit]"}, {"smiles": "N#CC1=C(SCC(=O)c2ccccc2)NC2=C(C(=O)CCC2)C1c1ccco1", "note": "(stereo not drawn)", "Potency": "active: 12.6 µM"}, {"smiles": "CSc1nc(-c2ccc(C)cc2)nc(N)c1C#N", "activity, negative = inhibition": "inactive: -4.95%"}, {"smiles": "COc1cccc2cc(C(=O)NCCc3c(C)[nH]c4ccc(Br)cc34)c(=O)oc12", "Potency": "inconclusive: 4.47 µM [inhibitor, full curve, poor fit]"}, {"smiles": "CN1C(=O)c2ccc(N(C)C)cc2C1=O", "activity, negative = inhibition": "inactive: -12.7%"}, {"smiles": "Nc1nc(-c2cccnc2)nn1C(=O)c1ccc(Cl)cc1", "Potency": "inconclusive: 11.2 µM [inhibitor, partial curve]"}, {"smiles": "O=[N+]([O-])c1ccc2nc(-c3ccccc3)[nH]c2c1", "Potency": "inconclusive: 17.8 µM [inhibitor, partial curve]"}, {"smiles": "CC/C(=N/Nc1ccccc1C)c1cnnc(SC)n1", "Potency": "active: 3.55 µM"}, {"smiles": "COc1ccc(/C=C/C(=O)c2ccc3c4c(cccc24)CC3)cc1", "Potency": "inconclusive: 2.51 µM [inhibitor, full curve]"}, {"smiles": "NC(=O)CC[C@@H]1NC(=O)[C@H](CO)NC(=O)c2cc([N+](=O)[O-])cc(I)c2NCC[C@@H](C(N)=O)NC(=O)[C@H](Cc2ccc(O)cc2)NC1=O", "activity, negative = inhibition": "inactive: -19.5%"}, {"smiles": "Cc1ccc(CN(C)C(=O)c2ccccc2Oc2ccccc2)o1", "Potency": "inconclusive: 28.2 µM [inhibitor, partial curve]"}, {"smiles": "CCc1ccc(N(CC)C(=O)Cn2c(=O)oc3ccccc32)cc1", "activity, negative = inhibition": "inactive: -4.2%"}, {"smiles": "Cc1cccc(C(=O)N2CCC(=O)N([C@H](COCc3ccccc3)Cc3ccccc3)CC2)c1", "Potency": "inconclusive: 44.7 µM [inhibitor, single point]"}, {"smiles": "Cc1onc(-c2c(F)cccc2Cl)c1C(=O)N1CCN(c2ncccn2)CC1", "activity, negative = inhibition": "inactive: -11.9%"}, {"smiles": "Cc1cc(C)nc(SCCS(=O)Cc2ccc(Cl)cc2)n1", "note": "(stereo not drawn)", "activity, negative = inhibition": "inactive: -16.1%"}, {"smiles": "CNC(=S)Nc1ccc(C)cc1", "activity, negative = inhibition": "inactive: 0.216%"}, {"smiles": "COc1ccc(NC(=S)N(CCc2c(C)[nH]c3ccc(C)cc23)Cc2ccco2)cc1", "Potency": "inconclusive: 15.8 µM [inhibitor, partial curve]"}, {"smiles": "Cc1ccc(-n2ncc(C(=O)Nc3ccc4c(c3)OCO4)c2C2CCN(C(=O)OC(C)(C)C)CC2)cc1", "Potency": "inconclusive: 12.6 µM [inhibitor, partial curve]"}, {"smiles": "Cc1ccc(CC2CC(=O)N(c3ccc(C)cc3)C2=O)cc1", "note": "(stereo not drawn)", "activity, negative = inhibition": "inactive: -1.1%"}, {"smiles": "O=[N+]([O-])c1cc(Br)c(OCc2nnc(-c3ccccc3)o2)c(Br)c1", "Potency": "inconclusive: 10 µM [inhibitor, partial curve]"}, {"smiles": "c1ccc(C2Nc3ccccc3Oc3ccccc32)cc1", "note": "(stereo not drawn)", "Potency": "inconclusive: 44.7 µM [inhibitor, single point]"}, {"smiles": "COc1ccc(C2CC(c3ccc(Br)cc3)=NN2C(=O)c2cccnc2)cc1", "note": "(stereo not drawn)", "activity, negative = inhibition": "inactive: -14.7%"}, {"smiles": "Cc1oc(-c2ccccc2)cc1C(=O)NC(Cc1c[nH]c2ccccc12)C(=O)O", "note": "(stereo not drawn)", "Potency": "inconclusive: 22.4 µM [inhibitor, single point]"}, {"smiles": "O=C(Cn1nnc(-c2ccc(Cl)cc2)n1)NCc1ccc(F)cc1", "activity, negative = inhibition": "inactive: 5.12%"}, {"smiles": "CC[n+]1ccc(C[n+]2ccccc2)c2ccccc21", "Potency": "inconclusive: 25.1 µM [inhibitor, single point]"}, {"smiles": "O=C(NCCO)/C(=C/c1ccc2c(c1)OCO2)NC(=O)c1ccc(Br)cc1", "Potency": "inconclusive: 12.6 µM [inhibitor, partial curve]"}, {"smiles": "O=C1/C(=C/c2cccs2)CCC1C1CCCC1", "note": "(stereo not drawn)", "Potency": "inconclusive: 17.8 µM [inhibitor, single point]"}, {"smiles": "O=C(NCc1ccccc1Cl)c1cnc2sc(N3CCCCC3)nn2c1=O", "activity, negative = inhibition": "inactive: 1.92%"}, {"smiles": "COc1ccc(/C=C/C(=O)c2ccc3c(c2)OCO3)c(OC)c1", "Potency": "inconclusive: 12.6 µM [inhibitor, partial curve]"}, {"smiles": "COc1ccc(Cl)cc1NC(=O)c1c(NCc2sccc2C)sc2c1CCCC2", "Potency": "active: 3.98 µM"}, {"smiles": "COc1ccc(-c2csc(N3N=C(C)C(C)C3=O)n2)cc1", "note": "(stereo not drawn)", "Potency": "inconclusive: 22.4 µM [inhibitor, partial curve]"}, {"smiles": "CN1C(=O)C2(c3ccccc31)N(c1cccc(F)c1)C(=O)CS2(=O)=O", "note": "(stereo not drawn)", "activity, negative = inhibition": "inactive: -11.5%"}, {"smiles": "COc1ccc2cc(/C=C3\\SC(=S)NC3=O)c(N3CCOCC3)nc2c1", "Potency": "active: 15.8 µM"}, {"smiles": "COCCN1C(=O)c2ccccc2C(C(=O)N2CCN(c3ccccc3)CC2)C1c1ccc(F)cc1", "note": "(stereo not drawn)", "activity, negative = inhibition": "inactive: -11.7%"}, {"smiles": "COCCCNC(=O)c1cc(-c2cccnc2)nc2ccc(S(=O)(=O)N3CCC(C)CC3)cc12", "activity, negative = inhibition": "inactive: -7.42%"}, {"smiles": "CCOC(=O)c1ccc(NC(=O)CC2C(=O)N(c3cccc(OC)c3)C(=O)N2Cc2ccc(OC)cc2)cc1", "note": "(stereo not drawn)", "activity, negative = inhibition": "inactive: 12.6%"}, {"smiles": "CCC(Oc1ccc(F)cc1)C(=O)Nc1nc(-c2ccc(F)cc2)ns1", "note": "(stereo not drawn)", "activity, negative = inhibition": "inactive: 6.12%"}, {"smiles": "O=C(OCC(=O)N1CCN(C(=O)c2ccco2)CC1)c1cc(-c2cccc(Br)c2)nc2ccccc12", "Potency": "inconclusive: 28.2 µM [inhibitor, partial curve, poor fit]"}, {"smiles": "Cc1ccc(S(=O)(=O)Nc2nc3ccccc3nc2NCc2ccco2)cc1", "Potency": "inconclusive: 20 µM [inhibitor, partial curve]"}, {"smiles": "CCNc1nc(NCC)nc(N/N=C/c2cc(OC)c(OC)c(OC)c2)n1", "activity, negative = inhibition": "inactive: -16.7%"}, {"smiles": "COc1ccc(C(CC(=O)NCc2ccccc2)N2Cc3ccccc3C2=O)cc1", "note": "(stereo not drawn)", "activity, negative = inhibition": "inactive: 7.82%"}, {"smiles": "Cc1[nH]c2ccccc2c1SCc1nnc(SCc2ccc(Cl)cc2)n1C", "Potency": "inconclusive: 35.5 µM [inhibitor, single point]"}, {"smiles": "COc1cc(/C=C/C(=O)c2c(O)cc(C)oc2=O)cc(OC)c1O", "Potency": "active: 28.2 µM"}, {"smiles": "CCn1c(=O)n(CC)c2cc(N3CCCCC3)c(NC(=O)Nc3ccccc3C(F)(F)F)cc21", "Potency": "inconclusive: 20 µM [inhibitor, single point]"}, {"smiles": "Cc1ccc(C2NC(=O)NC3=C2CCc2ccccc23)cc1", "note": "(stereo not drawn)", "Potency": "inconclusive: 31.6 µM [inhibitor, single point]"}, {"smiles": "C=CCc1ccccc1OCC(O)CN1CCN(c2ccccc2)CC1", "note": "(stereo not drawn)", "Potency": "inconclusive: 14.1 µM [inhibitor, partial curve]"}, {"smiles": "COCCSc1nnc(NC(=O)CSCc2ccccc2)s1", "activity, negative = inhibition": "inactive: -2.68%"}, {"smiles": "CCNC(=O)N1c2ccc(OCC)cc2C(C)=CC1(C)C", "Potency": "inconclusive: 22.4 µM [inhibitor, single point]"}, {"smiles": "Cn1c(SCC(O)c2ccccc2)nnc1-c1ccc2ccccc2c1", "note": "(stereo not drawn)", "Potency": "inconclusive: 12.6 µM [inhibitor, partial curve, poor fit]"}, {"smiles": "O=C(NCCCNc1ccc(C(F)(F)F)cc1[N+](=O)[O-])c1ccc(F)cc1", "Potency": "inconclusive: 1.58 µM [inhibitor, full curve]"}, {"smiles": "Cc1ccc(/C=N/N2CCN(c3ccccn3)CC2)cc1", "Potency": "inconclusive: 22.4 µM [inhibitor, partial curve, poor fit]"}, {"smiles": "COc1cc(/C=C(\\C#N)c2nc3ccccc3[nH]2)ccc1OC(=O)c1ccco1", "Potency": "inconclusive: 3.16 µM [inhibitor, full curve]"}, {"smiles": "COc1ccc(Cl)cc1NC(=O)CSC1=Nc2ccccc2C2=NC(CC(=O)NCc3ccc4c(c3)OCO4)C(=O)N12", "note": "(stereo not drawn)", "Potency": "inconclusive: 2.24 µM [inhibitor, full curve]"}, {"smiles": "C=CCNC(=O)N1CCc2nc(COc3ccccc3)c3c(c2C1)CO[C@@H](C)C3", "activity, negative = inhibition": "inactive: -4.79% [at 11.5 µM]"}, {"smiles": "c1ccc(OCc2nn3c(-c4cccnc4)nnc3s2)cc1", "activity, negative = inhibition": "inactive: 14.6%"}, {"smiles": "CCC(C)NC(=O)c1ccc2c(SCC(=O)O)c3c(nc2c1)CCCC3", "note": "(stereo not drawn)", "activity, negative = inhibition": "inactive: -17.3%"}, {"smiles": "COc1ccc(CC(=O)Nc2nc(-c3ccncc3)cs2)cc1", "Potency": "inconclusive: 12.6 µM [inhibitor, partial curve]"}, {"smiles": "COc1cc(NC(=O)CSC2=Nc3ccccc3N=C(c3ccc(F)cc3)C2)cc(OC)c1", "activity, negative = inhibition": "inactive: 5.96%"}, {"smiles": "COc1ccc2nc(NC(=O)c3cc(C)oc3C)sc2c1", "Potency": "inconclusive: 3.55 µM [inhibitor, partial curve]"}, {"smiles": "CC(=O)Nc1nc(N2C(=O)c3ccccc3C2=O)n(-c2ccccc2)n1", "activity, negative = inhibition": "inactive: 10.5%"}, {"smiles": "COc1ccccc1Cc1nc2ccccc2nc1SCC(=O)Nc1cccc(Cl)c1C", "activity, negative = inhibition": "inactive: 7.74%"}, {"smiles": "COc1cc(CNn2cn[nH]c2=S)cc(Cl)c1OCc1ccc(F)cc1", "Potency": "inconclusive: 15.8 µM [inhibitor, partial curve]"}, {"smiles": "Cc1ccc2[nH]c3c(c2c1)CN(C(=O)CN1CCN(c2ccccc2)CC1)CC3", "Potency": "inconclusive: 17.8 µM [inhibitor, single point]"}, {"smiles": "COCCNC(=O)c1ccc2c3n(nc2c1)-c1ccccc1CO3", "Potency": "inconclusive: 1.26 µM [inhibitor, partial curve]"}]}]}
